# Assay results as given in the supplement of paper PMC11417369.
# ± gives the standard deviation of the averaged measurements. Some of the results follow.
# Tested on: PfAP2-LT AP2 domain (GST-tagged)
# Assay: gcPBM binding intensity (ln(normalized median fluorescence intensity)); higher = stronger DNA binding
# In short: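 DNA-binding domains from P. falciparum, fused to GST and produced in E. coli, were put on an Agilent 4 × 180k double-stranded probe array for 1 h in 1× PBS holding 1% milk, 0.2 mg/ml BSA, 0.5% salmon testes DNA and 0.03% Triton X-100. Probes were primer-extended, 36 bp long and drawn from intergenic genomic regions, with negative controls included. After Alexa488 anti-GST antibody detection and a 488 nm scan, binding intensity was set as the highest Masliner-normalised natural-log median intensity across replicate spots of either probe orientation.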
row,Sequence,gcPBM binding intensity (ln)
1,GATTATATATGAAAATGTACAAATATATATATATAT [XGTACX_site5963],9.08 ± 0.47
2,TTTTTGTATGCTTCCCGACTACATTATGCCATAAAT [CACACA_negctrl_site136],9.02 ± 0.52
3,TATATATAAAAAACATGTACACAAATTTACATACAT [XGTACX_site4777],8.84 ± 0.37
4,TCACTAAACCATTAGAGTACTTGACATATAATGAGC [XGTACX_site3272],8.72 ± 0.26
5,AAGAGTTAAAAAAATACACACATATATATTTTTTTA [CACACA_site1980],8.76 ± 0.44
6,ATATATCTATATGTGTGTACATATAAGTATTTATAT [XGTACX_site5333],9.01 ± 0.37
7,ACATATAAACTGTATACACACAAATATTGCATATAT [CACACA_site6804],9.15 ± 0.29
8,ATATATATAAATATATGTACTAATATATACATATAT [XGTACX_site2289],8.73 ± 0.47
9,TACATTCTAAATATTACACACTTTATAAAATAATAA [CACACA_site4069],8.45 ± 0.38
10,AGAAAAGAGAAATGGGCACACACACCCATATTATAT [CACACA_site8433],9.32 ± 0.39
11,AAGGTGGGAAAAAATAGTACACAACAAAAATGTATG [XGTACX_site8741],8.87 ± 0.58
12,CACACAACTATCAAGGTGCTAAAATGAAATAATATA [GTGCAC_site9871],8.85 ± 0.48
13,AAAAAAATAAAAAATATATAAATAATTAATACATGT [GTGCAC_negctrl_site633],8.62 ± 0.59
14,AATATAAATAAAAACACACACACACGGATATTTATA [CACACA_site7134],10 ± 0.25
15,ATATTATATCTAATCGTGCACAACTGTACATTTGTC,9.17 ± 0.4
16,CCCATGTAATATTAAACACACACTCATATAACACAA [CACACA_site7906],9.36 ± 0.26
17,TTGTATCATATATTATGTACATATTTATTTATTATC [XGTACX_site7723],8.87 ± 0.41
18,CAAAATATTTAAAAAAGTACTTAAAATAAATTCAAA [XGTACX_site6866],8.47 ± 0.5
19,ATATTTAAATATATTTATATATATAAAAAAAAATAT [GTGCAC_negctrl_site312],8.51 ± 0.45
20,GAATATTCACATACTTGTACATATATATATATATAT [XGTACX_site7302],9.55 ± 0.028
21,AGGTAAAAATGGTAAGTGCATTAATGATAAAAAATG,9.06 ± 0.62
22,TAATAATAGTACTGACATCGAAATATTATTAAAAAT [CACACA_negctrl_site255],8.61 ± 0.49
23,TATAAGAATAAAAAGGGTACATAAAATAATAATATA [XGTACX_site2355],8.81 ± 0.5
24,GTTTACATAGATAACTGTACGCAATGATATTAGACA [XGTACX_site1320],8.77 ± 0.37
25,CAAAAAAAATAAAACACACACACAAAAAAATAAAAA [CACACA_site466],9.84 ± 0.31
